Test results published in US20060177456A1 (published 2006).

Molecular target: T1, soluble poly-histidine-tagged Apo-2 ligand (amino acids 114-281) (UniProt P50591 114-281)
T1 chain: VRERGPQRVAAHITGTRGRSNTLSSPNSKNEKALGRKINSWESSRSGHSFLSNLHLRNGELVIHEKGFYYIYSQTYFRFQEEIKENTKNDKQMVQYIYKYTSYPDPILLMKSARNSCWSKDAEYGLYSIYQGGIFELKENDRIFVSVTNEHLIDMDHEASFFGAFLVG
Test: affinity (FIG. 13)

Kd: 0.082 nM
B1: DR4-IgG (DR4 extracellular domain fused to the hinge and Fc region of human immunoglobulin G1 heavy chain) (Fc fusion)
chain: not shown
